Values after ≈ are worked out from the molar mass of the structure shown. Where two headings read alike, the source gives them in different places.
Experiments:
[1] = system: E. coli ATCC 43827; format: cell-based, Escherichia coli
[2] = system: A. baumannii ATCC BAA 1605; format: cell-based, Acinetobacter baumannii; settings: triplicate; for A. baumannii ATCC BAA 1605 MIC: second experimental round, broth microdilution (CLSI), Mueller-Hinton Broth, 0.5 × 10^5 CFU/mL, 1-[…], 18 h at 37 °C; for A. baumannii ATCC BAA 1605 MBC: second round, MIC well and two higher concentrations seeded on agar plates, no visible colonies
Experimental: (§1) Fresh cultures were used in antimicrobial assay. […] Moreover MBC was evaluated. […] All experiments were conducted in triplicate.

[3] = system: S. aureus ATCC 33591; format: cell-based, Staphylococcus aureus
Experimental: as §1

[4] = system: Sheep red blood cells; assay: Hemolysis assay (HC50); format: cell-based; settings: for HC50 (µM/ml): sheep erythrocytes, recalculated from μg/mL values, estimated as in https://pubmed.ncbi.nlm.nih.gov/29307075/; for HC50: sheep red blood cells 4% (v/v) in PBS, peptides 1-[…], 60 min at 37 °C, hemoglobin release at 590 nm, 1% Triton-X 100 = 100% hemolysis, triplicate, HC50 by ic50.tk
Experimental: The hemolysis assay was conducted according to the procedure described previously. Sheep red blood cells (Defibrillated Sheep Blood, Graso, Poland) were used. […] Then the solution of RBCs was added to each well (100 μL with a 4% concentration of erythrocytes (v/v). The control wells for 0 and 100% hemolysis were also prepared: RBCs suspended in PBS and 1% of Triton-X 100, respectively. After that the plates were incubated for 60 min at 37 °C and then centrifuged at 800 × g for 10 min at 4 °C (Sorvall ST 16R Centrifuge, Thermo Scientific). The supernatant was carefully […] to new microtiter plates and the release of hemoglobin was measured at 590 nm (Multiskan™ GO Microplate Spectrophotometer, Thermo Scientific). Hemolysis for each concentration was calculated as the percentage of control with 100% hemolysis. All experiments were conducted in triplicate. The final values of HC50 were computed using ic50.tk tool.

[5] = system: P. aeruginosa ATCC 9027; format: cell-based, Pseudomonas aeruginosa; settings: triplicate; for P. aeruginosa ATCC 9027 MIC: second experimental round, broth microdilution (CLSI), Mueller-Hinton Broth, 0.5 × 10^5 CFU/mL, 1-[…], 18 h at 37 °C; for P. aeruginosa ATCC 9027 MBC: second round, MIC well and two higher concentrations seeded on agar plates, no visible colonies
Experimental: as §1

[6] = system: E. coli ATCC 25922; format: cell-based, Escherichia coli
Experimental: as §1

[7] = second experimental round, broth microdilution (CLSI), Mueller-Hinton Broth, 0.5 × 10^5 CFU/mL, 1-[…], 18 h at 37 °C, triplicate
[8] = second round, MIC well and two higher concentrations seeded on agar plates, no visible colonies, triplicate
[9] = Supplementary Data 5F, analogue generation without additional preselection
[10] = first experimental round, broth microdilution (CLSI), Mueller-Hinton Broth, 0.5 × 10^5 CFU/mL, 1-[…], 18 h at 37 °C, triplicate

CC[C@H](C)[C@H](NC(=O)[C@H](CCCNC(=N)N)NC(=O)[C@H](Cc1c[nH]c2ccccc12)NC(=O)[C@H](Cc1ccccc1)NC(=O)[C@H](CCCNC(=N)N)NC(=O)[C@H](CCCNC(=N)N)NC(=O)[C@H](CC(C)C)NC(=O)[C@@H](N)Cc1ccccc1)C(=O)N[C@@H](Cc1c[nH]c2ccccc12)C(=O)N[C@@H](CCCNC(=N)N)C(=O)N[C@@H](CCCNC(=N)N)C(N)=O [Gedanan]
E. coli ATCC 43827 MBC ([1]; Supplementary Data 5D/5E): 32 µg/mL | E. coli ATCC 43827 MIC ([1]; Supplementary Data 5D/5E): 32 µg/mL | E. coli ATCC 43827 MIC [1, 7]: 32 µg/mL | E. coli ATCC 43827 MBC [1, 8]: 32 µg/mL | A. baumannii ATCC BAA 1605 MIC [2]: 32 µg/mL | A. baumannii ATCC BAA 1605 MBC [2]: 64 µg/mL | S. aureus ATCC 33591 MBC ([3]; Supplementary Data 5D/5E): 16 µg/mL | S. aureus ATCC 33591 MIC ([3]; Supplementary Data 5D/5E): 8 µg/mL | S. aureus ATCC 33591 MBC [3, 8]: 16 µg/mL | HC50 (µM/ml) [4]: 216 µM/ml | HC50 [4]: 512 µg/mL | P. aeruginosa ATCC 9027 MIC [5]: 16 µg/mL | P. aeruginosa ATCC 9027 MBC [5]: 32 µg/mL | E. coli ATCC 25922 MBC ([6]; Supplementary Data 5D/5E): 32 µg/mL | E. coli ATCC 25922 MIC ([6]; Supplementary Data 5D/5E): 32 µg/mL | E. coli ATCC 25922 MIC [6, 7]: 32 µg/mL | E. coli ATCC 25922 MBC [6, 8]: 32 µg/mL

CC[C@H](C)[C@H](N)C(=O)N[C@@H](CC(C)C)C(=O)N[C@@H](CCCNC(=N)N)C(=O)N[C@@H](Cc1c[nH]c2ccccc12)C(=O)N1CCC[C@H]1C(=O)N[C@@H](Cc1c[nH]c2ccccc12)C(=O)N[C@@H](CCCNC(=N)N)C(=O)N[C@H](C(=O)N[C@@H](Cc1c[nH]c2ccccc12)C(=O)N[C@@H](CCCNC(=N)N)C(=O)N[C@@H](CCCNC(=N)N)C(N)=O)[C@@H](C)CC [Omiganan-TII10]
E. coli ATCC 43827 MBC ([1]; Supplementary Data 5D/5E): 64 µg/mL | E. coli ATCC 43827 MIC ([1]; Supplementary Data 5D/5E): 64 µg/mL | E. coli ATCC 43827 MIC [1, 7]: 64 µg/mL | E. coli ATCC 43827 MBC [1, 8]: 64 µg/mL | A. baumannii ATCC BAA 1605 MIC [2]: 256 µg/mL | A. baumannii ATCC BAA 1605 MBC [2]: 256 µg/mL | S. aureus ATCC 33591 MBC ([3]; Supplementary Data 5D/5E): 128 µg/mL | S. aureus ATCC 33591 MIC ([3]; Supplementary Data 5D/5E): 64 µg/mL | S. aureus ATCC 33591 MIC [3, 7]: 64 µg/mL | S. aureus ATCC 33591 MBC [3, 8]: 128 µg/mL | HC50 (µM/ml) [4]: >232 µM/ml | HC50 [4]: >512 µg/mL | P. aeruginosa ATCC 9027 MIC [5]: 128 µg/mL | P. aeruginosa ATCC 9027 MBC [5]: 256 µg/mL | E. coli ATCC 25922 MBC ([6]; Supplementary Data 5D/5E): 128 µg/mL | E. coli ATCC 25922 MIC ([6]; Supplementary Data 5D/5E): 64 µg/mL | E. coli ATCC 25922 MIC [6, 7]: 64 µg/mL | E. coli ATCC 25922 MBC [6, 8]: 128 µg/mL

CC[C@H](C)[C@H](N)C(=O)NCC(=O)N[C@@H](CCCCN)C(=O)N[C@@H](CC(C)C)C(=O)N[C@@H](Cc1ccccc1)C(=O)N[C@@H](CCCCN)C(=O)N[C@@H](CCCNC(=N)N)C(=O)N[C@H](C(=O)N[C@@H](Cc1c[nH]cn1)C(=O)N[C@@H](CCC(=O)O)C(=O)N[C@@H](CCCNC(=N)N)C(=O)N[C@H](C(=O)N[C@@H](CCCCN)C(=O)N[C@@H](CCCNC(=N)N)C(=O)N[C@@H](Cc1ccccc1)C(=O)N[C@@H](CC(C)C)C(=O)N[C@@H](CCCNC(=N)N)C(=O)N[C@@H](CO)C(=O)N[C@@H](Cc1ccccc1)C(=O)N[C@@H](CC(C)C)C(=O)N[C@@H](CCCNC(=N)N)C(=O)N[C@H](C(=O)N[C@@H](CC(C)C)C(=O)N[C@@H](CCCNC(=N)N)C(N)=O)[C@@H](C)CC)[C@@H](C)CC)[C@@H](C)CC [OP-145-TII5]
E. coli ATCC 43827 MBC [1]: 64 µg/mL | E. coli ATCC 43827 MIC [1]: 64 µg/mL | E. coli ATCC 43827 MIC [1, 7]: 64 µg/mL | E. coli ATCC 43827 MBC [1, 8]: 64 µg/mL | A. baumannii ATCC BAA 1605 MIC [2]: 64 µg/mL | A. baumannii ATCC BAA 1605 MBC [2]: 64 µg/mL | S. aureus ATCC 33591 MBC [3]: 64 µg/mL | S. aureus ATCC 33591 MIC [3, 7]: 64 µg/mL | S. aureus ATCC 33591 MBC [3, 8]: 64 µg/mL | HC50 (µM/ml) [4]: >118 µM/ml | HC50 [4]: >512 µg/mL | P. aeruginosa ATCC 9027 MIC [5]: 128 µg/mL | P. aeruginosa ATCC 9027 MBC [5]: 128 µg/mL | E. coli ATCC 25922 MBC [6]: 64 µg/mL | E. coli ATCC 25922 MIC [6]: 64 µg/mL | E. coli ATCC 25922 MIC [6, 7]: 64 µg/mL | E. coli ATCC 25922 MBC [6, 8]: 64 µg/mL

CC[C@H](C)[C@H](NC(=O)[C@H](Cc1ccccc1)NC(=O)[C@H](CCCCN)NC(=O)[C@H](CC(N)=O)NC(=O)[C@H](CC(C)C)NC(=O)[C@H](CCCNC(=N)N)NC(=O)CN)C(=O)N[C@@H](CCCCN)C(=O)N[C@@H](CCCCN)C(=O)N[C@@H](C)C(=O)N[C@@H](Cc1c[nH]c2ccccc12)C(=O)N[C@@H](CCCNC(=N)N)C(=O)N[C@@H](CCCCN)C(=O)N[C@@H](Cc1ccccc1)C(=O)N[C@H](C(=O)N[C@@H](CC(C)C)C(=O)N[C@@H](CCCCN)C(=O)N[C@@H](Cc1ccccc1)C(=O)N[C@@H](C)C(=O)N[C@@H](CCCCN)C(N)=O)C(C)C [Piomiren]
E. coli ATCC 43827 MIC [1, 7]: 8 µg/mL | E. coli ATCC 43827 MBC [1, 8]: 8 µg/mL | A. baumannii ATCC BAA 1605 MIC [2]: 4 µg/mL | A. baumannii ATCC BAA 1605 MBC [2]: 4 µg/mL | S. aureus ATCC 33591 MIC [3, 7]: 32 µg/mL | S. aureus ATCC 33591 MBC [3, 8]: 64 µg/mL | HC50 (µM/ml) [4]: >146 µM/ml | HC50 [4]: >512 µg/mL | P. aeruginosa ATCC 9027 MIC [5]: 16 µg/mL | P. aeruginosa ATCC 9027 MBC [5]: 32 µg/mL | E. coli ATCC 25922 MIC [6, 7]: 8 µg/mL | E. coli ATCC 25922 MBC [6, 8]: 16 µg/mL

CC(C)C[C@H](NC(=O)[C@H](CC(C)C)NC(=O)[C@H](CCCCN)NC(=O)[C@H](Cc1ccccc1)NC(=O)[C@H](Cc1ccccc1)NC(=O)[C@H](CCCCN)NC(=O)[C@@H](NC(=O)[C@H](CC(C)C)NC(=O)CNC(=O)[C@H](CC(C)C)NC(=O)[C@@H]1CCCN1C(=O)[C@H](CCCCN)NC(=O)[C@H](CCCCN)NC(=O)[C@H](CC(C)C)NC(=O)[C@H](C)NC(=O)[C@H](Cc1ccccc1)NC(=O)[C@H](Cc1c[nH]c2ccccc12)NC(=O)[C@H](CC(C)C)NC(=O)[C@H](CCCCN)NC(=O)[C@H](CCCCN)NC(=O)CNC(=O)[C@@H](NC(=O)CN)C(C)C)C(C)C)C(N)=O [Hydraganan-1]
E. coli ATCC 43827 MBC ([1]; Supplementary Data 5D/5E): 16 µg/mL | E. coli ATCC 43827 MIC ([1]; Supplementary Data 5D/5E): 16 µg/mL | E. coli ATCC 43827 MIC [1, 9]: 2 µg/mL | MIC E. coli ATCC 43927 [1, 10]: 2 µg/mL (≈ 0.76 µM) | E. coli ATCC 43827 MBC [1, 8]: 16 µg/mL | A. baumannii ATCC BAA 1605 MBC [2]: 4 µg/mL | S. aureus ATCC 33591 MBC ([3]; Supplementary Data 5D/5E): 8 µg/mL | S. aureus ATCC 33591 MIC ([3]; Supplementary Data 5D/5E): 8 µg/mL | S. aureus ATCC 33591 MBC [3, 8]: 8 µg/mL | HC50 [4]: >512 µg/mL | P. aeruginosa ATCC 9027 MIC [5]: 32 µg/mL | P. aeruginosa ATCC 9027 MBC [5]: 64 µg/mL | E. coli ATCC 25922 MBC ([6]; Supplementary Data 5D/5E): 8 µg/mL | E. coli ATCC 25922 MIC ([6]; Supplementary Data 5D/5E): 8 µg/mL | E. coli ATCC 25922 MIC [6, 9]: 2 µg/mL | MIC E. coli ATCC 25922 [6, 10]: 2 µg/mL (≈ 0.76 µM) | E. coli ATCC 25922 MBC [6, 8]: 8 µg/mL

CC[C@H](C)[C@H](NC(=O)[C@H](Cc1ccccc1)NC(=O)[C@H](CCCCN)NC(=O)[C@H](CC(C)C)NC(=O)[C@H](CC(C)C)NC(=O)[C@H](CCCNC(=N)N)NC(=O)CN)C(=O)N[C@@H](CCCCN)C(=O)N[C@@H](CCCCN)C(=O)N[C@@H](C)C(=O)N[C@@H](CCC(N)=O)C(=O)N[C@@H](CCCNC(=N)N)C(=O)N[C@@H](CCCCN)C(=O)N[C@@H](Cc1ccccc1)C(=O)N[C@H](C(=O)N[C@@H](CCC(=O)O)C(=O)N[C@@H](CCCCN)C(=O)N[C@@H](Cc1ccccc1)C(=O)N[C@@H](C)C(=O)N[C@@H](CCCCN)C(N)=O)C(C)C [Rudyxin]
E. coli ATCC 43827 MIC [1, 7]: 4 µg/mL | E. coli ATCC 43827 MBC [1, 8]: 8 µg/mL | A. baumannii ATCC BAA 1605 MIC [2]: 8 µg/mL | A. baumannii ATCC BAA 1605 MBC [2]: 16 µg/mL | S. aureus ATCC 33591 MIC [3, 7]: 512 µg/mL | S. aureus ATCC 33591 MBC [3, 8]: >512 µg/mL | HC50 (µM/ml) [4]: >150 µM/ml | HC50 [4]: >512 µg/mL | P. aeruginosa ATCC 9027 MIC [5]: 32 µg/mL | P. aeruginosa ATCC 9027 MBC [5]: 64 µg/mL | E. coli ATCC 25922 MIC [6, 7]: 128 µg/mL | E. coli ATCC 25922 MBC [6, 8]: 128 µg/mL

— paper PMC10017685 (Nature Communications, 2023)
